Holding throughout (experiment): FACS binding
A general note: In flow cytometry, cells or beads pass a laser one at a time.

For test [1], the target named is T1, LAG-3 expressed on CHO-K1 cells (UniProt P18627 23-525).
T1 chain: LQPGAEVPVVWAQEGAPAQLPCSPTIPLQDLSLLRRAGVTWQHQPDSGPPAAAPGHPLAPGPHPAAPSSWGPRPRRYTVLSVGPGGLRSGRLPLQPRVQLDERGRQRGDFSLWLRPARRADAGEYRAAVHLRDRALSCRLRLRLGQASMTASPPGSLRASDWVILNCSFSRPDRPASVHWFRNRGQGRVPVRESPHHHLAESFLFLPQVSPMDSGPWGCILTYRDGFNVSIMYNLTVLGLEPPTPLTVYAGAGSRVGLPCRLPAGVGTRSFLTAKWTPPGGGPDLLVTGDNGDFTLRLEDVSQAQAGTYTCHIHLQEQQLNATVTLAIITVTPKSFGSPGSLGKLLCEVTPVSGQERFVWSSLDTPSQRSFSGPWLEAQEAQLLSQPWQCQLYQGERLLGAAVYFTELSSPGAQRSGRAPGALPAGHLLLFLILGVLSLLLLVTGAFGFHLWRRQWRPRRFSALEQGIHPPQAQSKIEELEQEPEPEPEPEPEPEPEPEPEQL

Test [2] deals with PD-L1 expressed on CHO-K1 cells (UniProt Q9NZQ7).
UniProt Q9NZQ7, sequence (Q9NZQ7 19-290): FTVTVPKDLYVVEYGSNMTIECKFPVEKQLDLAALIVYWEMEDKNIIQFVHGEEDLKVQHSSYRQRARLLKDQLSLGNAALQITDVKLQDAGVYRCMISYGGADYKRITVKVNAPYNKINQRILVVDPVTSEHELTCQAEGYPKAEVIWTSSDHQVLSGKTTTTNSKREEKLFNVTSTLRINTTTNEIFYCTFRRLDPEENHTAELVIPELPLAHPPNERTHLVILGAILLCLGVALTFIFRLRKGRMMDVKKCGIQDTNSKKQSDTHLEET
The target of test [3] is T1, LAG-3 expressed on CHO-K1 cells.

Where two headings read alike, the source gives them in different places.

B1: sdAb-LAG3-IgG4PE (Fc fusion)
chain: EVQLVESGGGLVQPGGSLRLSCAASGYTVSSYCMGWFRQAPGKGREGVSAIDSDGSVSYADSVKGRFTISKDNSKNTLYLQMNSLRAEDTAVYFCAADLCWVDQDQGEYNTWGQGTLVTVSS[letters of human IgG4 Fc with changes not shown]
In the case of B1, the EC50 was 0.302 nM in test [1], ~0.00171 nM in test [2] and 0.252 nM in test [3].

In general, EC50 refers to the concentration giving half of the maximal effect. Read a high EC50 as lower potency in that assay.

These data come from patent publication US20220220204A1 (published 2022).
